# Measured values from PubChem BioAssay AID686971 (National Center for Advancing Translational Sciences (NCATS), 2013).
# Hit rate of the full screen: of about 360,000 compounds, about 7,500 (2.1%) were called active. This list was built around the results that the source calls inconclusive (neither active nor inactive); the mix of calls is not that of the screen. The call rests on the fitted dose curve; in most records, active means well fitted cell-killing curve with a large enough effect; inconclusive means small, poorly fitted or top-dose-only effect, or effect the other way, or another doubt; inactive means no such curve, though single readings can be large or run the other way. Potencies of inconclusive entries are left out as doubtful fits.
# Assay: qHTS for induction of synthetic lethality in tumor cells producing 2HG: qHTS for the HT-1080-IDH1KD cell line;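 on activity, negative = toxicity: 0% = DMSO wells and -100% = cell-free medium wells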
# Details: HT-1080 IDH1 knockdown viability, ATP luminescence, 48 h; activity, negative = toxicity: at 46.1 µM (top of the series) unless noted
# How it was run: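 In this qHTS, HT-1080 cells depleted of IDH1 are exposed for 48 h at 37 °C to compound titrations. Toxicity is scored from CellTiter-Glo luminescence, with DMSO as full viability and medium alone as none.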
# Potency means the concentration at half of the fitted maximal effect; tags describe the fitted curve by direction and shape.
SMILES,Potency,"activity, negative = toxicity"
CC1CCN(S(=O)(=O)c2ccc3c(c2)C(=NO)c2cc(S(=O)(=O)N4CCC(C)CC4)ccc2-3)CC1,active: 2.59 µM,–
COc1cc(/C=C2/SC(=S)N(C)C2=O)ccc1OC(=O)c1ccco1,–,inactive: -14%
CC(NS(=O)(=O)c1cccc(Cl)c1F)[C@H](O)c1ccccc1 (stereo partly drawn),–,inactive: 4.46%
CC(C)C[C@H](NC(=O)c1nc[nH]c1C(=O)NCCCCCNC(=O)OC(C)(C)C)C(=O)OC(C)(C)C,"inconclusive [cytotoxic, single point]",–
CCSc1nnc2ccc(-c3ccc(C)cc3)nn12,–,inactive: 4.39%
Nc1nc(N)c2nc(-c3ccccc3)c(N)nc2n1,active: 2.91 µM,–
Cc1cc(=O)oc2cc(OCC(=O)N3c4ccccc4CC3C)ccc12 (stereo not drawn),active: 2.59 µM,–
Cc1[nH]n(-c2ccccc2)c(=S)c1C=Nc1cccc([N+](=O)[O-])c1,"inconclusive [cytotoxic, partial curve]",–
N#CCCOC1(C#CCN2CCCC2)CCCCC1,–,inconclusive: -6.66% [cytotoxic]
CC(C)OC(=O)c1cn(-c2ccccc2)nc1-c1ccco1,–,inactive: 4.17%
Cn1c2ccccc2c(=O)c2cc(NCCCN3CCOCC3)ccc21,–,inactive: -2.82%
C=CCNC(=O)c1onc(CCl)c1C(=O)OC,active: 25.9 µM,–
COc1ccc(-c2noc(CCCC(=O)N3CCN(c4cc(C)ccc4C)CC3)n2)cc1,–,inactive: -1.21%
CCCNc1nc2c(c(=O)n(C)c(=O)n2C)n1Cc1ccc(F)cc1,–,inactive: -17.2%
CC(C)(C)C(=O)N(CCN(C(=O)C(C)(C)C)c1ccccc1)c1ccccc1,–,inactive: 1.69%
O=C(CCc1nc(-c2ccccc2)no1)NCCc1ccccc1,"inconclusive [cytotoxic, single point]",–
CCc1cccc(NC(=O)CCCCCC2NC(=O)NC2C)c1 (stereo not drawn),–,inactive: -6.61%
CNCCCOc1ccc(Cl)cc1C(C)(C)C,active: 23.1 µM,–
Cc1cccc(-n2nnnc2SCC(=O)c2cc(C)n(Cc3ccco3)c2C)c1,"inconclusive [cytotoxic, single point]",–
COc1ccc(N2C(C)=CS/C2=C(/C#N)c2nnc(N3CCOCC3)n2-c2ccccc2)cc1,"inconclusive [cytotoxic, single point]",–
O=C1CC(N2CCC(c3nc4ccccc4s3)CC2)C(=O)N1 (stereo not drawn),–,inactive: 5.89%
CC(C(=O)Nc1ccc(OCc2ccccc2)cc1)N1CCCC1 (stereo not drawn),"inconclusive [cytotoxic, single point]",–
Cc1ccc2c(c1)nnn2C1CCN(CC(=O)Nc2ccccc2N2CCOCC2)CC1,"inconclusive [cytotoxic, single point]",–
